Data as given in article doi:10.1101/2022.04.07.487497 (bioRxiv, 2022).

Target: human recombinant mesothelin (MSLN domain, residues 296-606) (human, UniProt Q13421)
Assay: ELISA

binding result: binds
B1: amatuximab (MORAb-009) (antibody, V domains shown)
VH: not shown
VL: not shown
